# Measured values as given in PubChem BioAssay (NCI).
# Some compounds were tested as several samples or in several runs, with calls that do not always agree. Cut-off read from the data, not from the text of the source: active = growth inhibition above about 70%; inactive = the rest. For part of its entries the source gives two or more results. This is not the full list of results. An entry can have further records. Results that share an entry are repeats across runs, samples, wells, individuals or studies.
# Columns and labels:
# [1] = NCI Yeast Anticancer Drug Screen. Data for the rad50 strain (AID 155);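 note: 0% = growth of vehicle-only cultures of the same strain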; settings: S. cerevisiae rad50 strain growth inhibition; at 50.0 µM; stronger effect = higher value
# [2] = NCI Yeast Anticancer Drug Screen. Data for the mec2-1 strain (AID 157); settings: S. cerevisiae mec2-1 strain, at 50.0 µM, stronger effect = higher value
# [3] = NCI Yeast Anticancer Drug Screen. Data for the cln2 rad14 strain (AID 165);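 note: 0% = growth equal to vehicle treated cultures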; settings: S. cerevisiae cln2 rad14 strain, at 50.0 µM, stronger effect = higher value
structure (smiles),measurement,setting,value
C[C@H]1CCC/C=C/[C@@H]2C[C@H](O)C[C@H]2[C@H](O)/C=C/C(=O)O1,growth inhibition,[1],"active: 90%, 89.5%, 87.8% and inactive: 5.9% [separate samples]"
same,growth inhibition,[2],"active: 91.2%, 90.4%, 91.4% and inactive: -9.9% [separate samples]"
same,growth inhibition,[3],"active: 89.5%, 88.8%, 88% and inactive: 9.65% [separate samples]"
